Several values for one entry are separate records, joined by “and”; a condition that tells them apart may be missing. Identical values can stand only once. This list was built around the results that the source calls inconclusive (neither active nor inactive); the mix of calls is not that of the screen. Potencies beside an inconclusive call are fits to weak or partial responses and may not hold up. Activity calls are given as the source filed them. Calls follow the shape of the dose curve; as a rule, active = well fitted cell-killing curve with a large enough effect in the repeat runs; inconclusive = weak or mixed curves, or effect the other way; inactive = flat fitted curve, though single readings scatter.
Assay: qHTS RealTime-Glo MT Cell Viability Assay in HepG2 cells - 40 hour (AID 1224870); also: nearly all actives have a fitted effect of over 50% in size
Conditions: RealTime-Glo luminescence; series mostly up to 76.8 µM
Description: National Center for Advancing Translational Sciences [NCATS]
NIH Chemical Genomics Center [NCGC]
U.S. Environmental Protection Agency [EPA]
National Institutes of Environmental Health Sciences [NIEHS]
National Toxicology Program [NTP]
U.S. Food and Drug Administration [FDA]
Measure of cell viability is critical in the cell-base assay. Analysis of cell viability is necessary for the characterization of cell responses to cytotoxic drugs and environmental stress. A RealTime-Glo MT Cell Viability Assay to monitor cell viability in real time of continues cell culture during 40 hours of compound treatment was used to screen Tox21 10K library compounds in HepG2 cells. The RealTime-Glo MT Cell Viability Assay is a nonlytic, homogeneous, bioluminescent method to measure cell viability in real time using a simple, plate-based method. The assay involves adding NanoLuc luciferase and a cell-permeant prosubstrate to cells in culture. Viable cells reduce the proprietary prosubstrate to generate a substrate for NanoLuc luciferase. This substrate diffuses from cells into the surrounding culture medium, where it is rapidly used by the NanoLuc Enzyme to produce a luminescent signal. The signal correlates with the number of viable cells, making the assay well suited for cytotoxicity studies.
Tox21 Assay Protocol Summary:
The mixture of HepG2 cell suspension and reagents were dispensed at 600cells/6 ul/well in 1536-well tissue culture treated black solid bottom plates using a Multidrop dispenser. After the assay plates were incubated at a 37 C/5% CO2 incubator for 5 hours, 23 nL of compounds dissolved in DMSO, positive and negative controls was transferred to the assay plate by a pintool work station. The plates were incubated at 37 C for 40 hours. The luminescence intensity were measured at 0h, 8h, 16h, 24h, 32h and 40h time points using ViewLux plate reader during compound treatment.
Potency is read from the fitted curve at half-maximal effect; tags tell the direction and shape of the fitted curve.

Compound | Potency
C=C(c1ccc(C(=O)O)cc1)c1cc2c(cc1C)C(C)(C)CCC2(C)C | inconclusive: 54.9 µM [falling, single point]
CN(C)C(=S)SC(=S)N(C)C | inconclusive: 8.93 µM [falling, full curve]
CCCCCCCCCCCCCCCCCCNC(=O)OC1CCN(C(=O)OC[C@H](COC(=O)N(Cc2cccc[n+]2CC)C(=O)c2ccccc2OC)OC)CC1 | inconclusive: 26.8 µM [falling, single point]
O=C(Nc1ccccc1SSc1ccccc1NC(=O)c1ccccc1)c1ccccc1 | inconclusive: 54.9 µM [falling, single point]
O=C1c2c(O)ccc(O)c2C(=O)c2c(NCCNCCO)ccc(NCCNCCO)c21 | active: 7.56 µM
BrC1CCC(Br)C(Br)CCC(Br)C(Br)CCC1Br (stereo not given) | inconclusive: 54.7 µM [falling, single point]
O=C1C=CC(=O)N1c1ccccc1 | active: 11 µM
CSc1ccc2c(c1)N(CCC1CCCCN1C)c1ccccc1S2 (stereo not given) | inconclusive: 26.8 µM [falling, single point]
CCOC(=O)C1=C(C)NC(C)=C(C(=O)OCC)C1c1ccccc1/C=C/C(=O)OC(C)(C)C | inconclusive: 21.3 µM [falling, partial curve, poor fit]
Clc1ccc2c(c1)C(N1CCNCC1)=Nc1ccccc1O2 | inconclusive: 26.8 µM [falling, single point]
C=CC(=O)OCCOCCOCCOCCOC(=O)C=C | inconclusive: 62 µM [falling, single point] and inconclusive: 61.1 µM [falling, single point]
CC(C)(C)c1ccc(O)c(O)c1 | inconclusive: 30.9 µM [phenotype inactive, partial curve]
CCOC(=O)O[C@H](C)OC(=O)c1ccc2c(c1)cc(C(=O)NC1CCN(C(C)C)CC1)n2Cc1cc(-c2ccc(Cl)s2)on1 | active: 10.2 µM
CCCCCCCCCCCCCCCC[N+](C)(C)Cc1ccccc1 | active: 14.2 µM and active: 12.5 µM and active: 8.49 µM
CCCN(CCC)c1c([N+](=O)[O-])cc(C(F)(F)F)c(N)c1[N+](=O)[O-] | inconclusive: 54.8 µM [falling, single point]
Cc1cc(CCN2CCN(c3nsc4ccccc34)CC2)cc2c1NC(=O)CC2(C)C | inconclusive: 54.9 µM [falling, single point]
CC(C)(C)NC(=O)[C@@H]1C[C@@H]2CCCC[C@@H]2CN1C[C@@H](O)[C@H](Cc1ccccc1)NC(=O)[C@H](CC(N)=O)NC(=O)c1ccc2ccccc2n1 | inconclusive: 55.7 µM [falling, single point]
CCCCCCCCCCCCCCNCCO | active: 10.7 µM
Nc1cc(Cl)c(-c2cc(Cl)c(N)cc2Cl)cc1Cl | inconclusive: 54.9 µM [falling, partial curve, poor fit]
N=C1N=C(N)c2cc3ccccc3cc21 | active: 24.5 µM [cytotoxic]

Compound | Potency
CN1CCN(CCCN2c3ccccc3Sc3ccc(C(F)(F)F)cc32)CC1 | inconclusive: 26.8 µM [falling, single point]
COc1ccc(-c2ccc3cc(C(=O)O)ccc3c2)cc1C12CC3CC(CC(C3)C1)C2 | inconclusive: 23.9 µM [falling, single point]
CC(C)(C)CC(C)(C)c1ccc(O)c(Cc2ccc(Cl)cc2Cl)c1 | inconclusive: 26.8 µM [falling, partial curve, poor fit]
CCOc1nc2cccc(C(=O)OC(C)OC(=O)OC3CCCCC3)c2n1Cc1ccc(-c2ccccc2-c2nn[nH]n2)cc1 (stereo not given) | inconclusive: 48.9 µM [falling, partial curve, poor fit]
CCCCCCCCn1sc(Cl)c(Cl)c1=O | active: 6.92 µM
CC/C(=C(\c1ccccc1)c1ccc(OCCN(C)C)cc1)c1ccccc1 | inconclusive: 55.3 µM [falling, single point]
CC/C(=C(\c1ccc(O)cc1)c1ccc(OCCN(C)C)cc1)c1ccccc1 | inconclusive: 61.8 µM [falling, single point]
CC1=C(/C=C/C(C)=C/C=C/C(C)=C/C(=O)Nc2ccc(O)cc2)C(C)(C)CCC1 | inconclusive: 26.8 µM [falling, single point]
CC(C)c1cccc(C(C)C)c1N1C(=O)c2ccc(O)cc2C1=O | active: 43.6 µM
O=C1c2c(O)ccc([N+](=O)[O-])c2C(=O)c2c([N+](=O)[O-])ccc(O)c21 | inconclusive: 61.1 µM [falling, single point]
CCCCc1oc2ccccc2c1C(=O)c1cc(I)c(OCCN(CC)CC)c(I)c1 | inconclusive: 26.8 µM [falling, single point]
CC[C@@]1(O)C(=O)OCc2c1cc1n(c2=O)Cc2c-1nc1ccccc1c2/C=N/OC(C)(C)C | active: 1.07 µM
COc1cc(/C=C/C(=O)CC(=O)/C=C/c2ccc(O)c(OC)c2)ccc1O | inconclusive: 55.3 µM [falling, single point]
Nc1ccc(N)c2ccccc12 | inconclusive: 54.9 µM [falling, single point]
Cc1cc2c(C(C)C)c(O)c(O)c(C=O)c2c(O)c1-c1c(C)cc2c(C(C)C)c(O)c(O)c(C=O)c2c1O | active: 26.8 µM
CN1CCN(CCCN2c3ccccc3Sc3ccc(Cl)cc32)CC1 | inconclusive: 26.8 µM [falling, single point]
CC(C)(c1cc(Br)c(OCCO)c(Br)c1)c1cc(Br)c(OCCO)c(Br)c1 | inconclusive: 38 µM [falling, partial curve, poor fit]
Cc1cc(Nc2ccc(O)cc2)ccc1N | inconclusive: 54.7 µM [falling, single point]
CSc1ccc2c(c1)C(N1CCN(C)CC1)Cc1ccccc1S2 (stereo not given) | inconclusive: 26.8 µM [falling, single point]
CCN(CC)c1ccc(N)cc1 | inconclusive: 56.4 µM [falling, partial curve, poor fit]
